According to the supplement of paper PMC12217912:
This is one part of the list. Sequences were assembled here from the parent chain. Inactive controls read about 0.05.

B1: TEV protease; numbered along this chain (parent)
chain: MGESLFKGPRDYNPISSSICHLTNESDGHTTSLYGIGFGPFIITNKHLFRRNNGTLVVQSLHGVFKVKDTTTLQQHLVDGRDMIIIRMPKDFPPFPQKLKFREPQREERICLVTTNFQTKSMSSMVSDTSCTFPSGDGIFWKHWIQTKDGQCGSPLVSTRDGFIVGIHSASNFTNTNNYFTSVPKNFMELLTNQEAQQWVSGWRLNADSVLWGGHKVFMVKPEEPFQPVKEATQL

Variants of: B1
Assay: raw area under fraction-flipped curve 0-4 h after induction (AUC4h, not background-subtracted), DNA-recorder readout of cleavage of the substrate (dimensionless); higher = more cleavage of the substrate by the protease variant
Details: temperature: 34 °C; time window: 0-4 h after rhamnose induction
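Note: Bxb1 expression induced with 0.2% (w/v) L-rhamnose at OD600 near 0.5, cultures sampled hourly, flipped fraction per protease–substrate barcode pair counted by paired-end Illumina sequencing.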

Variant	area with substrate HNLYFQS	area with substrate MNLYFQS	area with substrate NNLYFQS	area with substrate SNLYFQS	area with substrate TNLYFQS	area with substrate INLYFQS	area with substrate LNLYFQS	area with substrate RNLYFQS	area with substrate WNLYFQS	area with substrate YNLYFQS	area with substrate KNLYFQS	area with substrate PNLYFQS	area with substrate VNLYFQS	area with substrate QNLYFQS
MGESLFKGPRDYNPISSSICHLTNESDGHTTSLYGIGFGPFIITNKHLFRRNNGTLVVQSLHGVFKVKDTTTLQQHLVDGRDMIIIRMPKDFPPFPQKLKFREPQREERICLVTTNFQTKSMSSMVSDTSCTFPSGDGIFWKHWIQTKDGQCGSPLVSTRDGFIVGIHSASNFTNTNNYFTSVPKNFMELLTNQEAQQWVSGWRLNADSILWGGHKVFMVKPEEPFQPVKEATQL [V210I]	0.0494	0.0625	0.0377	0.0667	0.0546									
MGESLFKGPRDYNPISSSICHLTNESDGHTTSLYGIGFGPFIITNKHLFRRNNGTLVVQSLHGVFKVKDTTTLQQHLVDGRDMIIIRMPKDFPPFPQKLKFREPQREERICLVTTNFQTKSMSSMVSDTSCTFPSGDGIFWKHWIQTKDGQCGSPLVSTRDGFIVGIHSASNFTNTNNYFTSVPKNFMELLTNQEAQQWVSGWRLNADSWLWGGHKVFMVKPEEPFQPVKEATQL [V210W]	0.0546		0.0485	0.0441	0.0526	0.0454	0.0633	0.0537	0.0609	0.0598				
MGESLFKGPRDYNPISSSICHLTNESDGHTTSLYGIGFGPFIITNKHLFRRNNGTLVVQSLHGVFKVKDTTTLQQHLVDGRDMIIIRMPKDFPPFPQKLKFREPQREERICLVTTNFQTKSMSSMVSDTSCTFPSGDGIFWKHWIQTKDGQCGSPLVSTRDGFIVGIHSASNFTNTNNYFTSVPKNFMELLTNQEAQQWVSGWRLNADSVEWGGHKVFMVKPEEPFQPVKEATQL [L211E]	0.0673	0.065		0.103	0.0773	0.0709	0.0531	0.0785	0.0597	0.0632	0.0676	0.079	0.0924	
MGESLFKGPRDYNPISSSICHLTNESDGHTTSLYGIGFGPFIITNKHLFRRNNGTLVVQSLHGVFKVKDTTTLQQHLVDGRDMIIIRMPKDFPPFPQKLKFREPQREERICLVTTNFQTKSMSSMVSDTSCTFPSGDGIFWKHWIQTKDGQCGSPLVSTRDGFIVGIHSASNFTNTNNYFTSVPKNFMELLTNQEAQQWVSGWRLNADSVGWGGHKVFMVKPEEPFQPVKEATQL [L211G]	0.0592		0.0583	0.0568					0.0676					
MGESLFKGPRDYNPISSSICHLTNESDGHTTSLYGIGFGPFIITNKHLFRRNNGTLVVQSLHGVFKVKDTTTLQQHLVDGRDMIIIRMPKDFPPFPQKLKFREPQREERICLVTTNFQTKSMSSMVSDTSCTFPSGDGIFWKHWIQTKDGQCGSPLVSTRDGFIVGIHSASNFTNTNNYFTSVPKNFMELLTNQEAQQWVSGWRLNADSVLWGIHKVFMVKPEEPFQPVKEATQL [G214I]	0.0542					0.0513				0.0422				
MGESLFKGPRDYNPISSSICHLTNESDGHTTSLYGIGFGPFIITNKHLFRRNNGTLVVQSLHGVFKVKDTTTLQQHLVDGRDMIIIRMPKDFPPFPQKLKFREPQREERICLVTTNFQTKSMSSMVSDTSCTFPSGDGIFWKHWIQTKDGQCGSPLVSTRDGFIVGIHSASNFTNTNNYFTSVPKNFMELLTNQEAQQWVSGWRLNADSVLWGGHKVFMVKPEEPFQPWKEATQL [V229W]	0.0616		0.0775	0.0767	0.0677	0.0612			0.055	0.0673	0.0573	0.0598	0.0635	
MGESLFKGPRDYNPISSSICHLTNESDGHTTSLYGIGFGPFIITNKHLFRRNNGTLVVQSLHGVFKVKDTTTLQQHLVDGRDMIIIRMPKDFPPFPQKLKFREPQREERICLVTTNFQTKSMSSMVSDTSCTFPSGDGIFWKHWIQTKDGQCGSPLVSTRDGFIVGIHSASNFTNTNNYFTSVPKNFMELLTNQEAQQWVSGWRLNADSVLWGGHKVFMVKPEEPFQPVREATQL [K230R]	0.0603			0.0826			0.0646							
MGESLFKGPRDYNPISSSICHLTNESDGHTTSLYGIGFGPFIITNKHLFRRNNGTLVVQSLHGVFKVKDTTTLQQHLVDGRDMIIIRMPKDFPPFPQKLKFREPQREERICLVTTNFQTKSMSSMVSDTSCTFPSGDGIFWKHWIQTKDGQCGSPLVSTRDGFIVGIHSASNFTNTNNYFTSVPKNFMELLTNQEAQQWVSGWRLNADSVLWGGHKVFMVKPEEPFQPVKEDTQL [A232D]	0.0798			0.0658	0.0843		0.0487		0.0542	0.0713			0.0605	
MGESLFKGPRDYNPISSSICHLTNESDGHTTSLYGIGFGPFIITNKHLFRRNNGTLVVQSLHGVFKVKDTTTLQQHLVDGRDMIIIRMPKDFPPFPQKLKFREPQREERICLVTTNFQTKSMSSMVSDTSCTFPSGDGIFWKHWIQTKDGQCGSPLVSTRDGFIVGIHSASNFTNTNNYFTSVPKNFMELLTNQEAQQWVSGWRLNADSVLWGGHKVFMVKPEEPFQPVKEATEL [Q234E]	0.0762				0.148	0.054	0.0676		0.0668	0.0249	0.0736	0.0461	0.0614	
MGESLFKGPRDYNPISSSICHLTNESDGHTTSLYGIGFGPFIITNKHLFRRNNGTLVVQSLHGVFKVKDTTTLQQHLVDGRDMIIIRMPKDFPPFPQKLKFREPQREERICLVTTNFQTKSMSSMVSDTSCTFPSGDGIFWKHWIQTKDGQCGSPLVSTRDGFIVGIHSASNFTNTNNYFTSVPKNFMELLTNQEAQQWVSGWRLNADSVLWGGHKVFMVKPEEPFQPVKEATQW [L235W]	0.0576				0.0716	0.0581	0.0581		0.0544	0.0596		0.065		0.0653
MGESLFKGPRDYNPISSSICHLTNESDGHTTSLYGIGFGPFIITNKHLFRRNNGTLVVQSLHGVFKVKDTTTLQQHLVDGRDMIIIRMPKDFPPPPQKLKFREPQREERICLVTTNFQTKSMSSMVSDTSCTFPSGDGIFWKHWIQTKDGQCGSPLVSTRDGFIVGIHSASNFTNTNNYFTSVPKNFMELLTNQEAQQWVSGWRLNADSVLWGGHKVFMVKPEEPFQPVKEATQL [F95P]			0.0402	0.0547	0.039	0.0558	0.0312		0.0408		0.0623	0.0488	0.0503	
